# Measurements reported in PubChem BioAssay (EPA / NIEHS).
# Several values for one entry are separate records, joined by “and”; a condition that tells them apart may be missing. Equal values may be shown once. This list was built around the results that the source calls inconclusive (neither active nor inactive); the mix of calls is not that of the screen. A potency beside an inconclusive call is a rough fit, not a confirmed value. The source holds several records for some structures; these can differ, active in one and inactive in another. Activity calls are given as the source filed them. How the source made its calls: active means hit-call score of the fitted dose curve at least 0.9, where 1 is the maximum; inconclusive means response in the unintended direction; inactive means score below 0.9.
# How the values were obtained:
# [1] = system: chicken Androgen Receptor (AR), gene 422165; experiment: ATG_chAR_XSP2: Attagene TRANS-FACTORIAL Multi-Species (XSP2) HepG2 Assay for chicken Androgen Receptor (AR) (AID 2283819);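 further: GAL4-driven reporter transcript measured by RT-PCR then capillary electrophoresis; hits raise reporter mRNA above DMSO so potency is for activation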
# How it was run: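 Readout is reporter mRNA induction via RT-PCR/capillary electrophoresis after 24 h chemical exposure, positive direction relative to DMSO. Transiently transfected HepG2 express chimeric chicken AR–GAL4; AR stimulated by 3 nM 6-alpha-fluorotestosterone and 1.5 nM norgestrel.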
# [2] = ATG_M_19_XSP2: Attagene TRANS-FACTORIAL Multi-Species (XSP2) HepG2 Assay for M32 Transcription Factor (Internal Marker) (AID 2283822)
# How it was run: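 Internal background marker in a multi-species nuclear receptor TRANS panel: transfected HepG2 cells exposed 24 h, with 3 nM 6-alpha-fluorotestosterone and 1.5 nM norgestrel present. Readout is RT-PCR of reporter transcripts resolved by capillary electrophoresis, gain-of-signal versus DMSO.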
# [3] = molecular target: human Phosphatase and Tensin Homolog (PTEN), PTEN (gene 5728) (UniProt P60484); experiment: NVS_ENZ_hPTEN: NovaScreen (NVS) Enzymatic Assay for human Phosphatase and Tensin Homolog (PTEN) (AID 2283203)
# How it was run: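 Loss of fluorescent product signal after mobility-shift separation reports PTEN activity, recombinant human enzyme, 1 h after compound addition. Single 25 uM duplicate screen, then concentration-response on actives; DMSO baseline.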
# [4] = molecular target: Nuclear receptor subfamily 1 group I member 2 (Homo sapiens) (UniProt O75469); experiment: NVS_NR_hPXR: NovaScreen (NVS) Nuclear Receptor Binding Assay for human Pregnane X Receptor (PXR) (AID 2283365);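 further: a drop in FRET signal versus DMSO baseline means the compound binds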
# How it was run: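 Cell-free TR-FRET binding assay with extracted human PXR protein, read 2 h after dosing. Primary screen run in duplicate at 25 uM, actives followed in concentration series; loss of signal fitted against DMSO baseline.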
# [5] = Tanguay_ZF_120hpf_EYE_legacy: (Legacy) Oregon State University Tanguay Lab 120 Hour Post-fertilization zebrafish Assay for Eye Malformation (AID 2283636);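 further: binary presence or absence of eye malformation scored by brightfield in 120 hpf larvae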
# How it was run: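 5D wild-type embryos, pronase-dechorionated at 4 hpf; static exposure 6–120 hpf, 28C, dark; DMSO 0.64% final; 5uM trimethyltin chloride positive control. Binary eye-defect scoring at 120 hpf; dead embryos not scored.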
# [6] = Tanguay_ZF_120hpf_CFIN_legacy: (Legacy) Oregon State University Tanguay Lab 120 Hour Post-fertilization zebrafish Assay for Caudal Fin Malformation (AID 2283649)
# How it was run: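 Dechorionated Tropical 5D wild-type embryos, one per well from 6 hpf, static exposure to 120 hpf at 28C in 0.64% DMSO. Caudal fin malformation scored by brightfield as present/absent; not scored in dead embryos.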
# [7] = read-out: xenobiotic metabolism (CYP1A2), CYP1A2 (gene 1544); experiment: CLD_CYP1A2_6hr: CellzDirect (CLD) Gene Expression Assay for xenobiotic metabolism (CYP1A2) at 6 hours (AID 2283663);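 on AC50: potency is for induction meaning a rise in mRNA above DMSO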
# How it was run: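 mRNA levels quantified by quantitative nuclease protection assay with chemiluminescence, 6 h after dosing human primary hepatocyte cultures (two donors) across several concentrations, vehicle 0.2% DMSO. Induction fitted upward versus DMSO; phase-contrast cytotoxicity annotated.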
# [8] = read-out: xenobiotic metabolism (CYP1A1), CYP1A1 (gene 1543); experiment: CLD_CYP1A1_24hr: CellzDirect (CLD) Gene Expression Assay for xenobiotic metabolism (CYP1A1) at 24 hours (AID 2283673);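 further: CYP1A1 mRNA level by quantitative nuclease protection with chemiluminescence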
# How it was run: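 Transcript levels were read at 24 h by qNPA chemiluminescence in human liver primary cells. Cells got daily fresh dosing at multiple concentrations (vehicle 0.2% DMSO). Induction fitted upward against DMSO; phase-contrast cytotoxicity annotated.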
# [9] = molecular target: Ratio of Nucleoli Translocation and Cytoplasm, AR (gene 367) (UniProt P10275); experiment: UPITT_HCI_U2OS_AR_TIF2_Nucleoli_Cytoplasm_Ratio_Antagonist: University of Pittsburgh U2OS Androgen Receptor-Transcriptional Intermediary Factor 2 (AR-TIF2) Antagonism High Content Imaging Assay for Ratio of Nucleoli Translocation and Cytoplasm (AID 2283999);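 further: antagonists lower the DHT-driven ratio of nucleolar to cytoplasmic red signal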
# How it was run: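 Compounds were added to U2OS cells carrying red-fluorescent AR and green-fluorescent TIF2, first at 20 uM, with hits confirmed in triplicate and titrated from 0.195 to 50 uM. Nucleolar versus cytoplasmic AR-RFP fluorescence was then quantified by imaging, with analysis relative to DHT.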
# [10] = read-out: xenobiotic metabolism (CYP1A2), CYP1A2 (gene 1544); experiment: CLD_CYP1A2_48hr: CellzDirect (CLD) Gene Expression Assay for xenobiotic metabolism (CYP1A2) at 48 hours (AID 2283703)
# How it was run: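 Cytotoxicity was flagged yes/no from morphology, while CYP1A2 transcript induction was detected by qNPA chemiluminescence after a 48-hour exposure. Human primary hepatocyte cultures from separate donors received fresh dosing solutions daily over two days, with 0.2% DMSO as vehicle and baseline.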
# [11] = CCTE_Shafer_MEA_acute_AB: CCTE's Alamar Blue Assay for Cytotoxicity in the Neural Acute Assay, Shafer Lab (AID 2284069);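 further: active compounds lower the viability signal compared with DMSO wells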
# How it was run: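 Cytotoxicity endpoint for acute MEA exposures of primary rat cortical neurons on day 13 or 15. Resazurin reduction is read fluorescently at 544/590 nm, with DMSO as the negative-control baseline.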
# [12] = read-out: sulfotransferase (SULT2A), SULT2A1 (gene 6822); experiment: CLD_SULT2A_6hr: CellzDirect (CLD) Gene Expression Assay for sulfotransferase (SULT2A) at 6 hours (AID 2283669);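 further: hits raise transcript level above the DMSO vehicle baseline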
# How it was run: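 Measured 6 h after dosing, SULT2A1 mRNA in human hepatocyte lysates was quantified by S1 nuclease protection with chemiluminescent detection. Increases fitted against 0.2% DMSO vehicle baseline; phase-contrast cytotoxicity recorded yes/no.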
# [13] = read-out: xenobiotic metabolism (CYP1A2), CYP1A2 (gene 1544); experiment: CLD_CYP1A2_24hr: CellzDirect (CLD) Gene Expression Assay for xenobiotic metabolism (CYP1A2) at 24 hours (AID 2283683)
# How it was run: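 CYP1A2 mRNA induction measured by quantitative nuclease protection (chemiluminescent) in human primary hepatocytes 24 h after multi-concentration chemical dosing with daily fresh solutions. DMSO (0.2%) baseline; positive-direction fitting; morphology-based cytotoxicity noted.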
# [14] = CCTE_Mundy_HCI_Cortical_Synap_Neur_Matur_NeuronCount: CCTE's Synaptogenesis and Neurite Maturation Assay in rat cortical cells for Neuron Count, Mundy Lab (AID 2284242);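 on AC50: neuron number from Hoechst nuclei and MAP2 staining by high-content imaging; hits reduce neuron count versus DMSO baseline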
# How it was run: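 Cortical cells from rat are plated, treated with AraC at DIV 5, and exposed to test chemicals with a media change at DIV 7. At DIV 12 they are fixed and immunostained (MAP2, synaptophysin), and imaged neuron counts are compared against DMSO controls.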
# [15] = molecular target: bovine Estrogen Receptor (ER), ESR1 (gene 407238) (UniProt P49884); experiment: NVS_NR_bER: NovaScreen (NVS) Nuclear Receptor Binding Assay for bovine Estrogen Receptor (ER) (AID 2283345);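 further: actives lower the bound radioligand count which means they displace the ER ligand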
# How it was run: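 Bovine uterine membranes; tritiated or iodinated radioligand; competitive displacement; 18 h; scintillation read; DMSO negative control; 25 uM duplicates, then concentration series for actives.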
# [16] = CCTE_Shafer_MEA_dev_AB: CCTE's Alamar Blue Assay for Cytotoxicity in the Neural Network Formation Assay, Shafer Lab (AID 2284083);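 further: resazurin reduction fluorescence as viability of cultured neurons; twelve days of exposure from plating with re-dosing on DIV 5 and 9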
# How it was run: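 Cytotoxicity companion to the developmental MEA: primary rat cortical neurons, 12-day exposure starting day 0, compound refreshed DIV 5 and 9; resazurin fluorescence, fitted against DMSO vehicle.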
# [17] = molecular target: Peroxisome proliferator-activated receptor gamma (Homo sapiens) (UniProt P37231); experiment: NVS_NR_hPPARg: NovaScreen (NVS) Nuclear Receptor Binding Assay for human Peroxisome Proliferator-activated Receptor gamma (PPARg) (AID 2283370)
# How it was run: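 Cell-free fluorescence polarization binding to human PPARg protein, read 2 h after dosing. Primary screen in duplicate at 25 uM, actives followed in concentration series; loss of signal relative to DMSO scored.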
# [18] = ATG_XTT_Cytotoxicity: Cytotoxicity Assessment in the Attagene TRANS-FACTORIAL HepG2 Assay (AID 2283584);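 further: XTT signal for cell number as viability in transfected HepG2 cells; cells exposed to compound for 24 h before reading; active means loss of viability signal versus DMSO baseline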
# How it was run: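 HepG2 cells transiently transfected with GAL4-UAS multiple reporter units, dosed 24 h; cytotoxicity read by XTT as loss of signal versus DMSO baseline.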
# [19] = molecular target: rat Peripheral-type Benzodiazepine Receptor (PBR), Tspo (gene 24230) (UniProt P16257); experiment: NVS_MP_rPBR: NovaScreen (NVS) Membrane Protein Assay for rat Peripheral-type Benzodiazepine Receptor (PBR) (AID 2283335)
# How it was run: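 Competitive displacement of specific radioligand from rat kidney membrane PBR, read by filtration and scintillation after 1 h. Compounds first tested at 25 uM in duplicate, then in concentration series; signal loss relative to DMSO.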
# UniProt P60484, sequence (P60484 whole entry, looked up): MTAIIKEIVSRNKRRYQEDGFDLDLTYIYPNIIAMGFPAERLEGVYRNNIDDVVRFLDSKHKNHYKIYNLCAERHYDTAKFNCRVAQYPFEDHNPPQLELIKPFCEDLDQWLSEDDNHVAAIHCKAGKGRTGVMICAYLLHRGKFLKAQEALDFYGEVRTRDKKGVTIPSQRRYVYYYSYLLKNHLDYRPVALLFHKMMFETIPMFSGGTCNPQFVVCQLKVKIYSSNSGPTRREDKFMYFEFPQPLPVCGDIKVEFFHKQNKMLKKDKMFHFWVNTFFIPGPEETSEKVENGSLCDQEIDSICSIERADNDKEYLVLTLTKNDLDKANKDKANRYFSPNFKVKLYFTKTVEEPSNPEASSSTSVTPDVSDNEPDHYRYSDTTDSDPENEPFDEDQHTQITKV
# UniProt O75469, sequence (O75469 whole entry, looked up): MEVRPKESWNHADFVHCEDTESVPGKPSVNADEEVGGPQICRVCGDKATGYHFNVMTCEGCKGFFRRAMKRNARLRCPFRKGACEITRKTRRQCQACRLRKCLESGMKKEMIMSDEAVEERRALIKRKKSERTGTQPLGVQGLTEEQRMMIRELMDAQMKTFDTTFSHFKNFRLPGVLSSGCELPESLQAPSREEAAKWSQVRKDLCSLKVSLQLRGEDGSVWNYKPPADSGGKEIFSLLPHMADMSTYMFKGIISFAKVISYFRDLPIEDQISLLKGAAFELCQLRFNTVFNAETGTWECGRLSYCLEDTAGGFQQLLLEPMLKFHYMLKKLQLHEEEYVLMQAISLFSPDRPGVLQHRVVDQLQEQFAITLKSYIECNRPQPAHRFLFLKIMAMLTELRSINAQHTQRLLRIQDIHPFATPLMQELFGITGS
# UniProt P10275, sequence (P10275 whole entry, looked up): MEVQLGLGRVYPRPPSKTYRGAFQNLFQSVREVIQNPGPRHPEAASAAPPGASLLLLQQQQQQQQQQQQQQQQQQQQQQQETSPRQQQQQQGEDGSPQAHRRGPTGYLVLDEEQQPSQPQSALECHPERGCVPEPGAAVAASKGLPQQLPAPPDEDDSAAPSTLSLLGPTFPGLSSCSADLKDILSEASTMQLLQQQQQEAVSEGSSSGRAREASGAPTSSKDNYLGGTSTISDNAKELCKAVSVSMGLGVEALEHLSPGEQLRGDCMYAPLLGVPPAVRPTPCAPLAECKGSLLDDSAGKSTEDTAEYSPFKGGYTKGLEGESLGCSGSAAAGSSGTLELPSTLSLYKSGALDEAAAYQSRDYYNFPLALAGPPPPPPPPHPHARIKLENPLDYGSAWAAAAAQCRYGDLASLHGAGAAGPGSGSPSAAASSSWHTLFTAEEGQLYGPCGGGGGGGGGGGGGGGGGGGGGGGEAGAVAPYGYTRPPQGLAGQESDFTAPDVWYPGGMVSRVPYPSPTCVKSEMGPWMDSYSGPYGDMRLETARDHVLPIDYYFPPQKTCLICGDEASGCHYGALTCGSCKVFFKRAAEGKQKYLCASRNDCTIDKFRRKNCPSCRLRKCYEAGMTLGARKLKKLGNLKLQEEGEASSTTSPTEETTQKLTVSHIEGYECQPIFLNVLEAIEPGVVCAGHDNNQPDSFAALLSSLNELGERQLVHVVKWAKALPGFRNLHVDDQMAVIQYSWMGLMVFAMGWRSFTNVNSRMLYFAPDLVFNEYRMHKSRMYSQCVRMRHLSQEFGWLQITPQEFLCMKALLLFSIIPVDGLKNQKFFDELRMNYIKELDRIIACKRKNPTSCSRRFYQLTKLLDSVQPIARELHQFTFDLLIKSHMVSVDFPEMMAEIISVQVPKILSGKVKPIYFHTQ
# UniProt P37231, sequence (P37231 whole entry, looked up): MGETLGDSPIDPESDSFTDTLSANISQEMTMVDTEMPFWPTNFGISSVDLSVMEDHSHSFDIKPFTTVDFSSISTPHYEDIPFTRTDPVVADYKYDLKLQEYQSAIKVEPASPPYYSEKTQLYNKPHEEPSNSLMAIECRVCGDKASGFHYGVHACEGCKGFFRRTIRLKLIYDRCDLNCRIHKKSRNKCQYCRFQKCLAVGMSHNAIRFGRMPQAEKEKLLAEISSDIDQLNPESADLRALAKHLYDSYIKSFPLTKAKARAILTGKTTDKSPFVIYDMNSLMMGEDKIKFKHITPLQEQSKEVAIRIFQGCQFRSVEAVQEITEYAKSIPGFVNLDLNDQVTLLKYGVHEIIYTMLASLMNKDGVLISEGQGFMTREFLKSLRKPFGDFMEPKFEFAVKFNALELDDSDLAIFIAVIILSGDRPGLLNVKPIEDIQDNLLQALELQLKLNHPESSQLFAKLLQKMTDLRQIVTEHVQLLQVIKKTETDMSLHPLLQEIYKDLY
# UniProt P16257, sequence (P16257 whole entry, looked up): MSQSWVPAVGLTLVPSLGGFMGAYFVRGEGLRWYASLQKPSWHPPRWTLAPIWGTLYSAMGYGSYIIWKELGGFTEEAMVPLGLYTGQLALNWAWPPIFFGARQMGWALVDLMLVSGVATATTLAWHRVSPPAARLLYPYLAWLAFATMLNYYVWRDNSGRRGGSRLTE
# UniProt P49884, sequence (P49884 whole entry, looked up): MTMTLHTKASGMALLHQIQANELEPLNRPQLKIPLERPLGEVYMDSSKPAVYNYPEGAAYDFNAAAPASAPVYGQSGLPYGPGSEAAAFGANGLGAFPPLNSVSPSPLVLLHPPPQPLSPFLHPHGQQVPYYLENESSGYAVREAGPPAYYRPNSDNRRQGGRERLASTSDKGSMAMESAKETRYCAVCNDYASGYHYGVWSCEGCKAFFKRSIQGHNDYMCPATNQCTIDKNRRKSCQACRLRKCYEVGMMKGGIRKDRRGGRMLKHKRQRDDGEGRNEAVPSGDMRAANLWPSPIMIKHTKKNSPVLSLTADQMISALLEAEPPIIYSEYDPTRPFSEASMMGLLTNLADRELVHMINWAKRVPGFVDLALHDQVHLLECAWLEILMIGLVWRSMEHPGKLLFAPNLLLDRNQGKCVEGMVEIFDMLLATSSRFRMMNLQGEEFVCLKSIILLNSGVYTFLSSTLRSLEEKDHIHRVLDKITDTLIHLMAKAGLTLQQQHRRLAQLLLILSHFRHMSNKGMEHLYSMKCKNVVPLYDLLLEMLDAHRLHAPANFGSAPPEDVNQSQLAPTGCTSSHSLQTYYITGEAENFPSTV
smiles,measurement,setting,value
CCCCOC(=O)c1ccccc1C(=O)OCc1ccccc1,outcome,[1],inactive
same,AC50,[2],inconclusive: 100 µM
CCN(CC)N=O,AC50,[3],inconclusive: 25 µM
same,AC50,[4],inconclusive: 25 µM
Cc1cnc(C2=NC(C)(C(C)C)C(=O)N2)c(C(=O)O)c1 (stereo not drawn),outcome,[5],inactive
same,AC50,[6],inconclusive: 202 µM
same,outcome,[7],inactive
same,AC50,[8],inconclusive: 0.341 µM
same,AC50,[9],inconclusive: 50 µM
CC(C)=CC1C(C(=O)OCN2C(=O)C3=C(CCCC3)C2=O)C1(C)C (stereo not drawn),AC50,[10],inconclusive: 0.000401 µM
same,AC50,[11],inconclusive: 20 µM
CCCOc1nn(C(=O)NS(=O)(=O)c2ccccc2C(=O)OC)c(=O)n1C,AC50,[7],inconclusive: 0.262 µM
same,AC50,[12],inconclusive: 0.0284 µM
same,outcome,[8],inactive
same,AC50,[13],inconclusive: 1.89 µM
same,outcome,[9],inactive
CCOP(=O)(NC(C)C)Oc1ccc(SC)c(C)c1 (stereo not drawn),AC50,[7],active: 4.22 µM
same,AC50,[12],inconclusive: 0.15 µM
same,AC50,[1],inconclusive: 100 µM and inconclusive: 170 µM
same,AC50,[2],inconclusive: 27 µM
same,outcome,[14],inactive
CCCCN(CC)c1c([N+](=O)[O-])cc(C(F)(F)F)cc1[N+](=O)[O-],outcome,[7],inactive
same,AC50,[13],active: 7.29 µM
CC(C)C(=O)Cl,AC50,[3],inconclusive: 0.0876 µM
N#CN=C1SCCN1Cc1ccc(Cl)nc1,outcome,[3],inactive
same,AC50,[15],inconclusive: 25 µM
same,AC50,[7],inconclusive: 0.0004 µM
same,outcome,[8],inactive
same,outcome,[13],inactive
same,AC50,[16],inconclusive: 9.31 nM
same,AC50,[14],inconclusive: 0.011 µM
CC1(C)[C@H](C(=O)O[C@H](C#N)c2cccc(Oc3ccccc3)c2)[C@@H]1C=C(Br)Br,AC50,[4],inconclusive: 25 µM
same,AC50,[9],inconclusive: 0.594 µM
same,AC50,[11],inconclusive: 15 µM
same,AC50,[16],inconclusive: 47.8 nM
O=P(Oc1ccccc1)(Oc1ccccc1)Oc1ccccc1,AC50,[4],inconclusive: 25 µM
same,outcome,[1],inactive
same,AC50,[2],inconclusive: 100 µM
same,outcome,[16],inactive
O=S(=O)(O)C(F)(F)C(F)(F)C(F)(F)C(F)(F)C(F)(F)C(F)(F)C(F)(F)C(F)(F)F,AC50,[3],active: 7.35 µM and active: 26.9 µM
same,AC50,[17],active: 16.9 µM [middle of 6 runs]
same,AC50,[18],active: 151 µM and active: 157 µM
same,AC50,[5],inconclusive: 89 µM and inconclusive: 56.7 µM
same,AC50,[6],active: 12.2 µM
same,outcome,[8],inactive
same,outcome,[1],inactive
same,AC50,[2],inconclusive: 100 µM
same,AC50,[16],active: 50 µM and inconclusive: 15 µM and inconclusive: 2.98 µM
same,AC50,[14],inconclusive: 0.0003 µM
same,outcome,[14],inactive
C=C(C)[C@H]1Cc2c(ccc3c2O[C@@H]2COc4cc(OC)c(OC)cc4[C@@H]2C3=O)O1,AC50,[4],inconclusive: 6.17 µM
same,outcome,[17],inactive
same,AC50,[7],inconclusive: 0.00631 µM
same,AC50,[13],inconclusive: 0.097 µM
same,AC50,[10],inconclusive: 0.0663 µM
same,AC50,[16],active: 38.4 nM and active: 57.1 nM
CCCCN(CCCC)C(=S)[S-].CCCCN(CCCC)C(=S)[S-].[Ni+2],AC50,[19],inconclusive: 0.0346 µM
O=C(CBr)c1ccc(O)cc1,outcome,[4],inactive
C=CCC1=C(C)[C@@H](OC(=O)[C@@H]2[C@@H](C=C(C)C)C2(C)C)CC1=O,outcome,[4],inactive
same,AC50,[12],active: 20 µM
same,outcome,[10],inactive
same,AC50,[16],active: 1980 nM
same,AC50,[14],active: 26.6 µM
COC[C@H](C)N(C(=O)CCl)c1c(C)csc1C,outcome,[3],inactive
same,AC50,[18],inconclusive: 100 µM
N#Cc1ccc(O)cc1,AC50,[3],inconclusive: 1.02 µM
COc1cc(Cl)c(OC)cc1Cl,AC50,[7],inconclusive: 0.00107 µM
ClC1C(Cl)C(Cl)C(Cl)C(Cl)C1Cl (stereo not drawn),AC50,[19],active: 14.1 µM
same,outcome,[19],inactive
same,outcome,[4],inactive
same,AC50,[13],inconclusive: 3.52 µM
same,AC50,[10],inconclusive: 2.32 µM
same,AC50,[11],inconclusive: 36 µM
same,outcome,[16],inactive
CC1=C(C(=O)Nc2ccccc2)SCCO1,AC50,[15],inconclusive: 25 µM
same,AC50,[17],inconclusive: 2.34 nM
same,AC50,[5],inconclusive: 237 nM
same,AC50,[13],active: 15.1 µM
same,AC50,[10],active: 31.1 µM
same,AC50,[9],inconclusive: 11.8 µM
CCCCN(CCCC)C(=S)S,AC50,[18],inconclusive: 100 µM
CCCCC(CC)COC(=O)c1ccc(C(=O)OCC(CC)CCCC)c(C(=O)OCC(CC)CCCC)c1 (stereo not drawn),AC50,[1],inconclusive: 7.43 nM and inconclusive: 163 µM
same,outcome,[2],inactive
O=NN(c1ccccc1)c1ccccc1,AC50,[18],inconclusive: 100 µM
same,AC50,[6],inconclusive: 201 µM
COC(=O)c1ccccc1S(=O)(=O)NC(=O)Nc1nc(C)nc(OC)n1,AC50,[19],inconclusive: 25 µM
same,AC50,[12],inconclusive: 20 µM
Nc1ccc([N+](=O)[O-])cc1,AC50,[9],inconclusive: 50 µM
